# Experimental data from PubChem BioAssay AID1468 (National Center for Advancing Translational Sciences (NCATS), 2008).
# Out of some 280,000 compounds screened, about 1,100 (0.39%) were called active. This list was built around the results that the source calls inconclusive (neither active nor inactive); the mix of calls is not that of the screen. Calls follow the shape of the dose curve; as a rule, active = well fitted inhibition curve with a large enough effect; inconclusive = small, poorly fitted or top-dose-only effect, or effect the other way; inactive = flat fitted curve, though single readings scatter. No potency is given beside an inconclusive call; the fits are too rough.
# Target: Microtubule-associated protein tau (Homo sapiens) (UniProt P10636)
# Experiment: qHTS for Inhibitors of Tau Fibril Formation, Fluorescence Polarization; also: nearly all actives have a fitted effect of over 55% in size
# Details: K18 P301L tau heparin fibrillization, Alexa594 FP, 6 h; series mostly up to 57.7 µM
# Outline: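 FP of Alexa 594-tau after heparin (20 uM) induction. Substrate: human K18 P301L, 15 uM unlabeled, 0.24 uM labeled. Buffer 100 mM sodium acetate pH 7. 6 hr, 37 C.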
# Potency is read from the fitted curve at half-maximal effect; tags tell the direction and shape of the fitted curve.
# UniProt P10636, sequence (P10636 whole entry, looked up): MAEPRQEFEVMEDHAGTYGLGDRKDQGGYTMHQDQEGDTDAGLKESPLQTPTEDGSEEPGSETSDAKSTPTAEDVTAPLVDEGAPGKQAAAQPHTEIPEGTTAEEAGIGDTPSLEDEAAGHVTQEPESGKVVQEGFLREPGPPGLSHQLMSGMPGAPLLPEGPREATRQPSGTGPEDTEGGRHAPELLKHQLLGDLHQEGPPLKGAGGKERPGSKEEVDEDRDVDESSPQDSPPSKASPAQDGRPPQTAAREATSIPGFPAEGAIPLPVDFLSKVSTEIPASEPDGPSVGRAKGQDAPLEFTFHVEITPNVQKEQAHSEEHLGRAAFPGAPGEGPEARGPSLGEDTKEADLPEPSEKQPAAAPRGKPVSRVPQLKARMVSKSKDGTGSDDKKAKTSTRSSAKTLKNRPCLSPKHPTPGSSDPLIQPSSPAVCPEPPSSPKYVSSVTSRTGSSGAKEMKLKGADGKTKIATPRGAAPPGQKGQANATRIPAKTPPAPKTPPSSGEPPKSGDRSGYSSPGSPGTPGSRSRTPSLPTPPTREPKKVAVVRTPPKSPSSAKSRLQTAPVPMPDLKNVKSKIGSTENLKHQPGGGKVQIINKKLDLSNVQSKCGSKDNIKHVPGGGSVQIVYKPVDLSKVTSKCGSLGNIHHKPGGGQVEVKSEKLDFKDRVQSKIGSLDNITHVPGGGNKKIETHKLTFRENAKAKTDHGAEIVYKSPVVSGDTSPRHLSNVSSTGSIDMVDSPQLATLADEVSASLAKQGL
row,SMILES,Potency
1,Cc1ccc2c(CNCc3ccc(C)o3)c(C(=O)O)n(Cc3ccccc3C)c2c1,inactive
2,Cc1onc(-c2ccccc2)c1C(=O)NC(=S)Nc1sc2c(c1C#N)CCCC2,"inconclusive [inhibitor, partial curve]"
3,Oc1c(C(c2ccccc2)N2CCOCC2)sc2nc(-c3ccco3)nn12 (configuration not stated),"inconclusive [inhibitor, full curve, poor fit]"
4,CCOC(=O)c1sc(NC(C)=O)nc1C,inactive
5,CCc1cccc(NC(=O)Cn2c(=O)n(CCC(=O)NCc3ccccc3Cl)c(=O)c3sccc32)c1,"inconclusive [inhibitor, partial curve]"
6,Cc1cc(C)cc(NC(=O)c2sc3nc4n(c(=O)c3c2C)N=C(c2ccccc2)CS4)c1,"inconclusive [inhibitor, partial curve, poor fit]"
7,O=C(Nc1cccc(F)c1)N1CC=C(c2ccc(Cl)cc2)CC1,"inconclusive [inhibitor, full curve, poor fit]"
8,Nc1c(C(=O)Nc2cccc(F)c2)nnn1-c1cccc(C(F)(F)F)c1,"inconclusive [inhibitor, partial curve, poor fit]"
9,Cc1ccc(C(=O)NC(=S)Nc2nc(-c3cccc([N+](=O)[O-])c3)cs2)c(Cl)c1,"inconclusive [inhibitor, partial curve]"
10,NC(=O)c1ccc(NC(=O)CN2CCN(c3ccc(Cl)cc3)CC2)cc1,inactive
11,Cc1cc(/C=C2\C(=N)N3N=C(c4ccco4)SC3=NC2=O)c(C)n1Cc1ccccc1,inactive
12,COc1ccc(OC)c(-c2csc(NC(=O)c3ccc4c(c3)OCO4)n2)c1,"inconclusive [inhibitor, partial curve]"
13,O=S(=O)([N-]c1nc2ccccc2nc1-n1cc[n+](Cc2ccccc2)c1)c1ccc(Br)cc1,inactive
14,CCCOC(=O)c1c(NC(=O)CCCn2nc([N+](=O)[O-])c(Cl)c2C)sc(C(=O)OC)c1C,inactive
15,O=C(NC1CCCCCC1)C1c2ccccc2C(=O)N1Cc1ccc(F)cc1 (configuration not stated),inactive
16,COc1ccc(/C=N/Nc2ncnc3sc4c(c23)CCCC4)cc1O,"inconclusive [activator, single point]"
17,O=C(CCC(=O)N/N=C/c1cc(Cl)cc(Cl)c1O)NCc1ccccc1,"inconclusive [inhibitor, single point]"
18,O=C(Nc1ccc(Br)cc1)c1cccn1-c1ncc(C(F)(F)F)cc1Cl,"inconclusive [inhibitor, single point]"
19,NC(=O)c1cc(Br)cc(C2CCCCC2)c1O,"inconclusive [inhibitor, single point]"
20,Clc1ccc(-c2ccnc(-n3cccc3)n2)s1,"inconclusive [inhibitor, partial curve]"
21,N#Cc1cccc(C#N)c1Oc1ccc(S(=O)(=O)Nc2ccc(Cl)cc2)cc1,"inconclusive [inhibitor, single point]"
22,CC[C@H](C)NC(=O)c1ccc(Cn2c(=S)[nH]c3c([nH]c4ccc(OC)cc43)c2=O)cc1,"inconclusive [inhibitor, single point]"
23,C=CCn1c(C)cc(C(=O)COC(=O)c2ccc3c(c2)NC(=O)CS3)c1C,"inconclusive [inhibitor, single point]"

row,SMILES,Potency
1,CCn1c(=O)c2cc(C(=O)Nc3cccc(C(C)=O)c3)sc2c2ccccc21,"inconclusive [inhibitor, partial curve, poor fit]"
2,CN=c1scc(-c2ccco2)n1/N=C/c1ccc(O)c(O)c1,"inconclusive [activator, full curve, poor fit]"
3,O=C(CCN1C(=O)C2CC=C(Cl)CC2C1=O)NCc1ccco1 (configuration not stated),inactive
4,CCOc1ccccc1NC(=O)Cn1ncc2c([nH]c3ccccc32)c1=O,"inconclusive [inhibitor, single point]"
5,O=C(CSC1=Nc2ccccc2C2CC=NN12)Nc1ccc(F)cc1Cl (configuration not stated),"inconclusive [inhibitor, partial curve]"
6,CCSc1nc2ccccc2n1CCOc1ccccc1,"inconclusive [inhibitor, partial curve, poor fit]"
7,C/C(N)=C(/C#N)C(=O)CSc1nc2ccccc2c(=O)n1-c1ccc(C)c(Cl)c1,"inconclusive [inhibitor, partial curve]"
8,S=c1[nH]nc(COc2ccccc2)n1/N=C/C=C/c1ccco1,"inconclusive [inhibitor, single point]"
9,CCC(SC1=N/C(=C/c2ccccc2OC)C(=O)N1c1ccccc1)C(=O)Nc1cc(C)on1 (configuration not stated),"inconclusive [inhibitor, single point]"
10,Cc1ccc(-c2cc3ncc(C(=O)c4cc(Cl)c(C)cc4O)cn3n2)cc1,"inconclusive [inhibitor, partial curve]"
11,CCN(C(=O)CSc1ncc2c(n1)-c1cc(Cl)ccc1N(Cc1ccccc1)S2(=O)=O)c1cccc(C)c1,inactive
12,NC(=S)Cc1nc(-c2ccc(Cl)cc2)cs1,"inconclusive [inhibitor, single point]"
13,CN(CC(=O)Nc1cccc(S(=O)(=O)NC2=NCCCCC2)c1)Cc1ccc(C(C)(C)C)cc1,"inconclusive [activator, single point]"
14,Cc1ccc(-c2nnc(NCc3nc4ccccc4[nH]3)c3ccccc23)cc1S(=O)(=O)N(C)C,"inconclusive [inhibitor, single point]"
15,CCCn1c(SCC(=O)NCCc2ccccc2)nnc1-c1cccnc1,inactive
16,O=C(NCc1ccc(Cl)cc1)C1=Cc2cc(Br)ccc2OC1,"inconclusive [inhibitor, single point]"
17,O=C(NCCCN1CCc2ccccc2C1)Nc1ccc(Br)cc1,"inconclusive [inhibitor, single point]"
18,Cc1c(NC(=O)c2ccc(F)c(S(=O)(=O)N3CCOCC3)c2)c(=O)n(-c2ccccc2)n1C,"inconclusive [inhibitor, single point]"
19,CN1C(=O)C2(Oc3ccccc3C3CC(c4ccccc4)=NN32)c2ccccc21 (configuration not stated),inactive
20,Cc1c(Nc2cc(N3CCOCC3)c3nonc3c2[N+](=O)[O-])c(=O)n(-c2ccccc2)n1C,inactive
21,O=C(NC1CCc2ccccc21)C1CCN(S(=O)(=O)c2ccc(Cl)cc2)CC1 (configuration not stated),inactive
22,CCN(C(=O)CN1CCN(S(=O)(=O)c2ccccc2C(F)(F)F)CC1)c1c(N)n(Cc2ccccc2)c(=O)[nH]c1=O,inactive
23,COC(=O)c1ccc(Cl)c(NC(=O)NC23CC4CC(CC(C4)C2)C3)c1,"inconclusive [inhibitor, single point]"

row,SMILES,Potency
1,CCc1ccc(NC(=O)Nc2ccccc2OCc2cc(=O)n3ccccc3n2)cc1,inactive
2,COc1ccccc1C(=O)Nc1ccc2c(c1)OCO2,"inconclusive [inhibitor, full curve, poor fit]"
3,Cc1ccc(SCC(=O)c2c(C)[nH]c3ccccc23)cc1,"inconclusive [inhibitor, partial curve, poor fit]"
4,Cc1ccc(/C=c2\sc3nc(-c4ccccc4Br)nn3c2=O)o1,"inconclusive [inhibitor, single point]"
5,O/N=C\c1ccc(-c2ccccc2)o1,inactive
6,Cc1cc(C)cc(NC(=O)CSc2cc(C(=O)c3nccn3C)c3ccccc3n2)c1,"inconclusive [inhibitor, single point]"
7,CC(C)COCC(CN(Cc1ccccc1)c1ccccc1)N1CCCC1 (configuration not stated),inactive
8,CCCCN=C(N)/C(C(=O)OCC)=C(\O)c1ccc(OC)cc1,"inconclusive [inhibitor, full curve, poor fit]"
9,Cc1csc(NC(=O)c2ccc(N3CCCC3=O)cc2)n1,inactive
10,Cc1nnc2c(N3CCN(c4ccc(F)cc4)CC3)nc3ccc(C(=O)c4ccccc4)cc3n12,inactive
11,O=C(NCCCCc1ccccc1)c1ccc(Br)o1,inactive
12,CC(C)(C)OC(=O)[C@H](Cc1ccccc1)NC(=O)c1[nH]cnc1C(=O)Nc1cccc(Cl)c1,active: 22.4 µM
13,O=C(NCCc1csc(-c2cccnc2)n1)c1ccccc1,"inconclusive [inhibitor, single point]"
14,CCc1ccc(NS(=O)(=O)c2ccc(-c3cc(C)no3)cc2)cc1,"inconclusive [inhibitor, partial curve, poor fit]"
15,COc1ccccc1NC1=C(N2CCCCC2)C(=O)c2ccccc2C1=O,"inconclusive [inhibitor, partial curve]"
16,Cc1ccc(-c2n[nH]c(=O)c3ccccc23)cc1S(=O)(=O)Nc1ccc(F)cc1,"inconclusive [inhibitor, single point]"
17,C=CCn1c(O)c(/C=C2\C=NN=C2c2ccccc2)sc1=S,"inconclusive [inhibitor, partial curve, poor fit]"
18,COc1ccc([N+](=O)[O-])cc1/C=N/Nc1nc(N2CCCCC2)nc(N2CCCCC2)n1,inactive
19,CN(C)CCN(Cc1ccco1)C(=O)c1cc2c(s1)-c1ccccc1OC2,inactive
20,COc1ccc(CNc2nc3c(c(=O)n(Cc4ccc(Br)cc4)c(=O)n3C)n2C)cc1,"inconclusive [activator, full curve]"
21,COc1ccc(Nc2cc(C)c3c(O)cccc3n2)cc1,"inconclusive [activator, single point]"
